Measured values: patent US8920798B2, “Myostatin binding agents, nucleic acids encoding the same, and methods of treatment” (Amgen Inc., priority 2002, dated 2014)

T1: myostatin (Homo sapiens, UniProt O14793)
T1 construct: To produce mature myostatin, the pooled promyostatin was enzymatically cleaved between the propeptide and mature myostatin C terminal; made in house; host or cells: E. coli K-12 strain 2596 (ATCC #202174)
T1 sequence (O14793 267-375): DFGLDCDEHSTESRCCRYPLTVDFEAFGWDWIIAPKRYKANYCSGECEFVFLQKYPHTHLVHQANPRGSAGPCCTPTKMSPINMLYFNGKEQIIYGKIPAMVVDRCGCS


What follows are molecules tested against T1, myostatin (assay: C2C12 pMARE-luc cell based myostatin activity assay). Conditions: Table VIII; affinity matured peptibodies; a range of values is given.
Text: A myostatin-responsive reporter cell line was generated by transfection of C2C12 myoblast cells (ATCC No: CRL-1772) with a pMARE-luc construct. The pMARE-luc construct was made by cloning twelve repeats of the CAGA sequence, representing the myostatin/activin response elements (Dennler et al. EMBO 17: 3091-3100 (1998)) into a pLuc-MCS reporter vector (Stratagene cat #219087) upstream of the TATA box. The myoblast C2C12 cells naturally express myostatin/activin receptors on its cell surface. When myostatin binds the cell receptors, the Smad pathway is activated, and phosphorylated Smad binds to the response element (Maciasi-Silva et al. Cell 87:1215 (1996)), resulting in the expression of the lucerase gene. Luciferase activity is then measured using a commercial luciferase reporter assay kit (cat #E4550, Promega, Madison, Wis.) according to manufacturer's protocol. A stable line of C2C12 cells that had been transfected with pMARE-luc (C2C12/pMARE clone #44) was used to measure myostatin activity according to the following procedure.
Equal numbers of the reporter cells (C2C12/pMARE clone #44) were plated into 96 well cultures. A first round screening using two dilutions of peptibodies was performed with the myostatin concentration fixed at 4 nM. Recombinant mature myostatin was pre-incubated for 2 hours at room temperature with peptibodies at 40 nM and 400 nM respectively. The reporter cell culture was treated with the myostatin with or without peptibodies for six hours. Myostatin activity was measured by determining the luciferase activity in the treated cultures. This assay was used to initially identify peptibody hits that inhibited the myostatin signaling activity in the reporter assay. Subsequently, a nine point titration curve was generated with the myostatin concentration fixed at 4 nM. The myostatin was preincubated with each of the following nine concentrations of peptibodies: […], 0.4 nM, 4 nM, 20 nM, 40 nM, 200 nM, 400 nM, 2 uM and 4 uM for two hours before adding the mixture to the reporter cell culture. […]

IC50 [nM]	Molecule
0.883 to 1.25	2xmTN8-19-21(-LE): 2x mTN8-19-21 peptibody with the LE amino acids removed (protein) [letters of human IgG1 Fc left out]GGGGGAQSEYQGLCTRWPWMCPPQGWKGSGSATGGSGGGASSGSGSATGSEYQGLCTRWPWMCPPQGWK
1.03 to 1.12	2xmTN8-19-33(-LE): 2x mTN8-19-33 peptibody with the LE amino acids removed (protein) [letters of human IgG1 Fc left out]GGGGGAQPESQGHCTRWPWMCPPQGWGGSGSATGGSGGGASSGSGSATGPESQGHCTRWPWMCPPQGWG
1.75 to 2.68	mTN8-19-7(-LE): mTN8-19-7 peptibody with the LE amino acids removed (protein) [letters of human IgG1 Fc left out]GGGGGAQLADHGQCIRWPWMCPPEGWE
